Results published in patent US20100311683A1, “CYTIDINE ANALOGS FOR TREATMENT OF MYELODYSPLASTIC SYNDROMES” (priority 2007, published 2010).
Read-outs that look alike come from different tables or passages of the source.

Assays:
[1] = tested on: patients with higher risk MDS; experiment: AZA-001 pooled subgroup analysis by Western EU country; format: in vivo, human
[2] = tested on: patients with higher risk MDS; conditions: for HR (95% CI) for overall survival, AZA vs BSC / HR (95% CI) for overall survival, AZA vs IC / HR (95% CI) for overall survival, AZA vs LDara-C: adjusted stratified Cox model
[3] = IPSS cytogenetic subgroup Intermediate
[4] = ITT, N=179, listed as Azacitidine
[5] = pre-selection BSC only, AZA N=117
[6] = pre-selection IC, AZA N=17 / IC N=25
[7] = pre-selection LDara-C, AZA N=45 / LDara-C N=49

Nc1ncn([C@@H]2O[C@H](CO)[C@@H](O)[C@H]2O)c(=O)n1 [azacitidine, 4-amino-1-β-D-ribofuranosyl-1,3,5-triazin-2(1H)-one]
HR (95% CI) OS, AZA vs CCR ([1]; France + UK): 0.44 (0.23-0.85) | difference in median OS, AZA vs CCR ([1]; France + UK): 8.0 months | OS (median months) ([1]; France + UK (LDAC driven)): 24.5 months | difference in median OS, AZA vs CCR ([1]; Germany + Italy + Spain): 8.6 months | OS (median months) ([1]; Germany + Italy + Spain (BSC driven)): 25.1 months | baseline RBC transfusion-dependent patients who became transfusion independent ([2]; 50 of 111 patients): 45% | hazard ratio for overall survival, azacitidine vs CCR ([2]; IPSS cytogenetic subgroup Good): 0.62 | overall survival difference favoring azacitidine vs CCR ([2]; IPSS cytogenetic subgroup Good): median not reached | hazard ratio for overall survival, azacitidine vs CCR [2, 3]: 0.43 | overall survival difference favoring azacitidine vs CCR [2, 3]: 9.3 months | hazard ratio for overall survival, azacitidine vs CCR ([2]; IPSS cytogenetic subgroup Poor): 0.52 | overall survival difference favoring azacitidine vs CCR ([2]; IPSS cytogenetic subgroup Poor): 11.2 months | Any hematologic improvement (Major + Minor) rate ([2]; ITT): 49.2% | HI-E Major (erythroid improvement) rate ([2]; ITT): 39.5% | HI-N Major (neutrophil improvement) rate ([2]; ITT): 25/131 (19.1) % | HI-P Major (platelet improvement) rate ([2]; ITT): 32.6% | difference in median overall survival, azacitidine vs CCR ([2]; ITT): 9.4 months | hazard ratio for overall survival, azacitidine vs CCR (Cox model) ([2]; ITT): 0.58 | hazard ratio, time to AML transformation, azacitidine vs CCR ([2]; ITT): 0.50 | median duration of hematologic improvement ([2]; ITT): 13.6 months | median time to AML transformation ([2]; ITT): 17.8 months | median time to disease progression, relapse after complete or partial remission, or death ([2]; ITT): 14.1 months | overall survival advantage vs CCR ([2]; ITT): 74% | patients alive at two years ([2]; ITT): 50.8% | reduction in risk of death vs CCR ([2]; ITT): 42% | difference in time to transformation to AML, azacitidine vs CCR ([2]; ITT population, FIG. 6): 13.7 months | Complete Remission rate ([2]; ITT, N=179): 17% | Deaths during first 3 cycles of treatment ([2]; ITT, N=179): 8% | Deaths, overall ([2]; ITT, N=179): 82 (46) % | Overall (CR + PR) rate, IWG 2000 ([2]; ITT, N=179): 28.5% | Partial Remission rate ([2]; ITT, N=179): 21/179 (11.7) % | Stable Disease rate ([2]; ITT, N=179): 75/179 (41.9) % | Deaths during first 3 cycles of treatment ([2]; ITT, N=179, listed as AZA): 14 (8) % | Complete Remission rate [2, 4]: 30/179 (16.8) % | Overall (CR + PR) rate, IWG 2000 [2, 4]: 51 (28.5) % | median Kaplan-Meier overall survival ([2]; ITT, azacitidine 75 mg/m2/day SC 7 d every 28 d, n=179): 24.4 months | Any hematologic improvement (Major + Minor) rate ([2]; ITT, listed as Azacitidine): 87/177 (49.2) % | HI-E Major (erythroid improvement) rate ([2]; ITT, listed as Azacitidine): 62/157 (39.5) % | HI-P Major (platelet improvement) rate ([2]; ITT, listed as Azacitidine): 46/141 (32.6) % | median time to AML transformation ([2]; assessed during treatment): 26.1 months | median time to transformation to AML or death ([2]; assessed over the entire trial): 13.0 months | HR, dependence of overall survival prolongation on achievement of complete remission ([2]; azacitidine vs CCR): 0.39 | deaths reported during treatment and follow-up ([2]; by treatment group): 45% | hazard ratio, time to transformation to AML or death, azacitidine vs CCR ([2]; entire trial): 0.68 | discontinuation / early withdrawal due to blood cytopenias ([2]; human, in vivo): 4.6% | discontinuations prior to study closure due to adverse events ([2]; human, in vivo): 12.6% | hazard ratio, infections requiring intravenous antimicrobials, azacitidine vs intensive chemotherapy ([2]; human, in vivo, iv): 0.28 | rate of infections requiring intravenous antimicrobials ([2]; human, in vivo, iv): 0.64 per patient year | tolerability ([2]; in vivo): well tolerated | hazard ratio, infections requiring intravenous antimicrobials, azacitidine vs BSC ([2]; in vivo, iv): 1.1 | hazard ratio, infections requiring intravenous antimicrobials, azacitidine vs CCR ([2]; in vivo, iv): 0.66 | hazard ratio, infections requiring intravenous antimicrobials, azacitidine vs LDara-C ([2]; in vivo, iv): 0.44 | HI-E Major rate ([2]; pre-selection BSC only): (39.0) % | HI-N Major rate ([2]; pre-selection BSC only): (15.3) % | HI-P Major rate ([2]; pre-selection BSC only): (30.3) % | IWG Any hematologic improvement rate ([2]; pre-selection BSC only): (49.6) % | difference in median overall survival, AZA vs BSC ([2]; pre-selection BSC only): 9.6 months | Complete Remission (CR) rate [2, 5]: (12.0) % | Kaplan-Meier median overall survival [2, 5]: 21.1 months | Overall (CR + PR) rate [2, 5]: (27.4) % | Partial Remission (PR) rate [2, 5]: (15.4) % | Stable Disease (SD) rate [2, 5]: (44.4) % | Deaths during first 3 cycles of treatment ([2]; pre-selection BSC only, ITT): (12) % | Deaths, overall ([2]; pre-selection BSC only, ITT, AZA N=117): (45) % | HR (95% CI) for overall survival, AZA vs BSC ([2]; pre-selection BSC only): 0.58 | HR (95% CI) for overall survival, AZA vs BSC ([2]; pre-selection BSC only, listed as AZA): 0.58 (0.40 to 0.85), 0.005 | HI-E Major rate ([2]; pre-selection IC): (28.6) % | HI-N Major rate ([2]; pre-selection IC): (23.1) % | HI-P Major rate ([2]; pre-selection IC): (33.3) % | IWG Any hematologic improvement rate ([2]; pre-selection IC): (35.3) % | difference in median overall survival, AZA vs IC ([2]; pre-selection IC): 9.4 months | Complete Remission (CR) rate [2, 6]: (29.4) % | Kaplan-Meier median overall survival [2, 6]: 25.1 months | Overall (CR + PR) rate [2, 6]: (29.4) % | Partial Remission (PR) rate [2, 6]: (0.0) % | Stable Disease (SD) rate [2, 6]: (47.1) % | HR (95% CI) for overall survival, AZA vs IC ([2]; pre-selection IC): 0.76 | HR (95% CI) for overall survival, AZA vs IC ([2]; pre-selection IC, listed as AZA): 0.76 (95% CI: 0.33 to 1.74) | Deaths during first 3 cycles of treatment ([2]; pre-selection Intensive Chemo, ITT): (0) % | Deaths, overall ([2]; pre-selection Intensive Chemo, ITT, AZA N=17 / IC N=25): (53) % | HI-E Major rate ([2]; pre-selection LDara-C): (44.2) % | HI-N Major rate ([2]; pre-selection LDara-C): (27.3) % | HI-P Major rate ([2]; pre-selection LDara-C): (37.8) % | IWG Any hematologic improvement rate ([2]; pre-selection LDara-C): (53.3) % | difference in median overall survival, AZA vs LDara-C ([2]; pre-selection LDara-C): 9.2 months | Complete Remission (CR) rate [2, 7]: (24.4) % | Kaplan-Meier median overall survival [2, 7]: 24.5 months | Overall (CR + PR) rate [2, 7]: (31.1) % | Partial Remission (PR) rate [2, 7]: (6.7) % | Stable Disease (SD) rate [2, 7]: (33.3) % | Deaths during first 3 cycles of treatment ([2]; pre-selection LDara-C, ITT): (0) % | Deaths, overall ([2]; pre-selection LDara-C, ITT, AZA N=45 / LDara-C N=49): (44) % | HR (95% CI) for overall survival, AZA vs LDara-C ([2]; pre-selection LDara-C): 0.36 | HR (95% CI) for overall survival, AZA vs LDara-C ([2]; pre-selection LDara-C, listed as AZA): 0.36 (0.20 to 0.65), 0.0006
